Results from article PMC11230635.
Results are given in words; binding and its absence hold for the method and conditions named. Binding seen in cells or lysates may run through a third protein. Some binding calls cover weakened binding; strength is not graded here.

Sequences of proteins named here, by UniProt entry; tags and fusion partners are left off.
UniProt Q8TD16: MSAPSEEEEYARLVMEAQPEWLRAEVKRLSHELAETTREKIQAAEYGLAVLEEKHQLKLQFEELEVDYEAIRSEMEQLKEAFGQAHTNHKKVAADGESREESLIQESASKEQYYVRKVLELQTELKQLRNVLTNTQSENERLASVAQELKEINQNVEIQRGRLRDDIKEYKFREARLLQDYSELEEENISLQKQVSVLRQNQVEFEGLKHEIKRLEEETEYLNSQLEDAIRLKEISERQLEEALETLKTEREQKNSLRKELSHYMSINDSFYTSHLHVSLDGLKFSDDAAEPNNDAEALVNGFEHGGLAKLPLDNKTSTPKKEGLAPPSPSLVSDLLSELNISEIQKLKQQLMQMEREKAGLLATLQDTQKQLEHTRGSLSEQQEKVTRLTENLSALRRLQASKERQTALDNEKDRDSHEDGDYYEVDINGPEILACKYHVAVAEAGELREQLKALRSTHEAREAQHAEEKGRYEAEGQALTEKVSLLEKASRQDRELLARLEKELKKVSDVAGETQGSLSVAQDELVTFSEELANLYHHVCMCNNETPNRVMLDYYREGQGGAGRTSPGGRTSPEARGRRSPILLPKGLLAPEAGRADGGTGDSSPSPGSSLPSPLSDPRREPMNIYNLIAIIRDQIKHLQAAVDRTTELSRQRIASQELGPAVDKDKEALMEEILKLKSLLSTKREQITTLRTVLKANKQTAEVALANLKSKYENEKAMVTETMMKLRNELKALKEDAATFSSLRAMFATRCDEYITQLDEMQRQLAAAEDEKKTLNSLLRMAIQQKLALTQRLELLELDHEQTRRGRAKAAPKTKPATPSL
UniProt Q6ZP65: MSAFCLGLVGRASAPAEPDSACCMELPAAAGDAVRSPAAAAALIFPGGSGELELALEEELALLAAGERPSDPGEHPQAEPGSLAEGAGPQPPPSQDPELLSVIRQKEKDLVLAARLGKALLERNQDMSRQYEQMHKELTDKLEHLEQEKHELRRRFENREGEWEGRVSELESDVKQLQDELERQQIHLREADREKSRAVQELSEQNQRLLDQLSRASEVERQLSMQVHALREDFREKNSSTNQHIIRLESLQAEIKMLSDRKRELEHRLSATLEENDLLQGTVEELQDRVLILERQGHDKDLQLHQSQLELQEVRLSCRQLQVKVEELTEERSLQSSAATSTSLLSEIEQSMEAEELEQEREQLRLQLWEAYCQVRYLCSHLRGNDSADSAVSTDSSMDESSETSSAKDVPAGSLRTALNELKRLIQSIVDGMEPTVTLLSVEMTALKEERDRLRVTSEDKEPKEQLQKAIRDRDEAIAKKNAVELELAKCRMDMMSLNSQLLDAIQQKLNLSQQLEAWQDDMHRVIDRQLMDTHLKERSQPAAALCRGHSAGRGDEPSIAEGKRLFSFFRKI

Columns and labels:
[1] = biological target: BICD2 dynein cargo adaptor, endogenous (human (endogenous in HeLa)) (UniProt Q8TD16); assay: co-IP
[2] = biological target: HPV16 L2 peptide C (amino acids 434 through 461), biotinylated (human papillomavirus type 16 (HPV16)) (UniProt P03107); assay: pull-down; biotinylated peptide with whole cell extract of uninfected HeLa cells (untransfected or transfected with HA-BICD2-mCherry or HA-mCherry) in Hepes buffer; streptavidin magnetic beads; blot for BICD2, BICDR1 or the transfected protein; only the target purified
[3] = biological target: HPV16 L2 peptide M (amino acids 299 through 312), biotinylated (human papillomavirus type 16 (HPV16)) (UniProt P03107); assay: as above
[4] = biological target: BICD2 dynein cargo adaptor, endogenous (human (endogenous in HeLa)) (UniProt Q8TD16); assay: proximity ligation

Substance: HPV16 L2 capsid protein with a C-terminal 3x-FLAG epitope (L2F), brought into cells by the pseudovirus HPV16.L2F (from UniProt P03107 1-473)
- binding [1]: binds

Substance: BICDR1 dynein cargo adaptor, endogenous (from UniProt Q6ZP65 1-573)
- binding [2]: binds

Substance: BICD2 dynein cargo adaptor, endogenous (from UniProt Q8TD16 1-824)
- binding [2]: binds
- binding [3]: no binding

Substance: HPV16.L2F pseudovirus particle (capsid proteins L1 and L2F), detected through L1 (from UniProt P03101;P03107) (complex)
- binding [4]: binds
